The list shows a part of the results. Sequences were assembled here from the parent chain. Values near 0.05 are background.
B1: TEV protease; numbered along this chain (parent)
chain: MGESLFKGPRDYNPISSSICHLTNESDGHTTSLYGIGFGPFIITNKHLFRRNNGTLVVQSLHGVFKVKDTTTLQQHLVDGRDMIIIRMPKDFPPFPQKLKFREPQREERICLVTTNFQTKSMSSMVSDTSCTFPSGDGIFWKHWIQTKDGQCGSPLVSTRDGFIVGIHSASNFTNTNNYFTSVPKNFMELLTNQEAQQWVSGWRLNADSVLWGGHKVFMVKPEEPFQPVKEATQL

Variants of: B1
Assay: raw area under fraction-flipped curve 0-4 h after induction (AUC4h, not background-subtracted), DNA-recorder readout of cleavage of the substrate (dimensionless); higher = more cleavage of the substrate by the protease variant
Conditions: temperature: 34 °C; time window: 0-4 h after rhamnose induction
Procedure: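 In vivo DNA recorder in E. coli TOP10(DE3) ΔrhaA at 34 °C. Each TEVp single-site mutant (parent TEVp 0) is paired with a single-site variant of the 7-mer TEVs (canonical ENLYFQ|S). The substrate sits between flexible linkers in a Bxb1-sfGFP-TEVs-SsrA fusion, so cleavage stabilises Bxb1 and speeds flipping of a recombination array, read by NGS. The value is the raw area under the fraction-flipped curve over 0-4 h after rhamnose induction (AUC4h), with ≥20 reads per time point. It is not background-subtracted; inactive controls average about 0.047.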
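Also: Bxb1 expression induced with 0.2% (w/v) L-rhamnose at OD600 near 0.5, cultures sampled hourly, flipped fraction per protease–substrate barcode pair counted by paired-end Illumina sequencing.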

Row | Variant | area with substrate ENLYCQS | area with substrate ENLYDQS | area with substrate ENLYKQS | area with substrate ENLYLQS | area with substrate ENLYMQS | area with substrate ENLYNQS | area with substrate ENLYQQS | area with substrate ENLYRQS | area with substrate ENLYWQS | area with substrate ENLYYQS | area with substrate ENLYGQS | area with substrate ENLYHQS | area with substrate ENLYPQS | area with substrate ENLYVQS | area with substrate ENLYEQS | area with substrate ENLYIQS | area with substrate ENLYTQS | area with substrate ENLYSQS
1 | I86S | 0.0744 | 0.0507 | 0.0357 | 0.0597 | 0.0858 | 0.0545 | 0.0649 | 0.0488 | 0.0557 | 0.0416 |  |  |  |  |  |  |  | 
2 | Y34A | 0.0747 | 0.0639 | 0.0241 |  |  | 0.075 |  | 0.0604 | 0.0608 |  | 0.0513 | 0.0522 | 0.0632 | 0.0538 |  |  |  | 
3 | S158P | 0.0517 | 0.0597 | 0.0459 |  | 0.044 | 0.0543 |  | 0.0536 |  | 0.0457 | 0.0588 | 0.0478 | 0.0567 | 0.0555 | 0.048 | 0.0569 | 0.0544 | 
4 | K7G | 0.0892 | 0.0592 | 0.0976 |  | 0.0937 |  | 0.0716 | 0.0651 | 0.0919 | 0.0579 |  |  | 0.0752 |  | 0.0603 |  | 0.0656 | 0.0466
5 | Q74K | 0.0575 | 0.0593 | 0.0576 | 0.0838 | 0.0697 |  | 0.0568 | 0.0624 |  |  | 0.0691 | 0.0665 | 0.0834 |  | 0.0773 |  |  | 
6 | L73C | 0.0607 |  | 0.0603 |  |  |  | 0.0662 | 0.0655 | 0.0554 |  |  | 0.0705 | 0.0622 | 0.0077 |  |  |  | 0.057
7 | R10T | 0.0986 |  | 0.0675 |  | 0.0914 | 0.0538 | 0.066 |  |  |  |  | 0.0705 |  |  |  | 0.111 |  | 0.0771
8 | P93V | 0.0956 | 0.0955 |  |  | 0.0881 |  |  | 0.0596 | 0.0705 | 0.0796 |  | 0.0753 | 0.0672 | 0.135 | 0.0754 | 0.116 | 0.0711 | 
9 | G2L | 0.133 |  | 0.0223 |  |  |  |  | 0.0543 |  | 0.0621 |  |  |  | 0.157 | 0.0701 | 0.14 |  | 
10 | G2C | 0.0479 |  |  |  | 0.111 |  |  |  |  |  |  |  | 0.0854 |  |  |  |  | 0.075
11 | V67P | 0.0391 | 0.0419 | 0.0457 | 0.046 | 0.0442 | 0.0341 | 0.0461 | 0.0434 | 0.0484 |  | 0.0341 | 0.0463 | 0.0609 | 0.0263 |  | 0.0536 |  | 0.0379
12 | Q75I | 0.0727 | 0.0706 |  | 0.07 |  | 0.0609 |  |  | 0.0802 |  | 0.0598 | 0.0381 | 0.0653 |  | 0.0672 |  |  | 0.078
13 | F140Q | 0.0657 | 0.0635 | 0.0696 |  | 0.0436 | 0.061 | 0.0681 |  |  | 0.0583 | 0.0598 |  | 0.0727 |  | 0.06 |  |  | 
14 | F140N | 0.0704 | 0.0658 | 0.0699 | 0.0698 | 0.0593 | 0.0633 | 0.0558 | 0.0557 |  | 0.0568 | 0.0654 |  | 0.0632 | 0.066 | 0.0634 | 0.0715 | 0.0649 | 0.058
15 | Q118K | 0.078 | 0.0693 | 0.0475 |  | 0.0828 | 0.0754 |  | 0.0552 | 0.0652 | 0.0697 | 0.0669 | 0.0692 | 0.0678 | 0.0583 | 0.0607 | 0.058 | 0.0911 | 
16 | Q118D | 0.0764 | 0.0702 | 0.054 | 0.0806 | 0.069 | 0.0759 | 0.0909 |  |  |  |  | 0.0701 | 0.0496 |  | 0.0769 |  |  | 
17 | Q118I | 0.0741 |  |  | 0.0747 | 0.0788 | 0.0844 | 0.0651 | 0.06 | 0.0635 |  | 0.0647 | 0.0912 | 0.0708 |  |  |  |  | 0.1
18 | H143F | 0.105 | 0.0718 |  |  | 0.0643 | 0.0783 | 0.0697 |  |  | 0.0675 | 0.0674 | 0.104 | 0.0732 |  | 0.0678 |  |  | 0.0833
19 | Q151D | 0.0804 | 0.0581 | 0.0463 | 0.094 | 0.0936 | 0.0867 | 0.0737 |  | 0.0857 | 0.0767 | 0.064 | 0.0719 | 0.0823 | 0.138 | 0.0727 | 0.125 | 0.0914 | 0.0768
20 | S169P | 0.059 | 0.0559 | 0.0624 |  | 0.0617 | 0.0958 | 0.0479 | 0.06 |  | 0.0653 |  | 0.0508 | 0.0487 | 0.059 | 0.0628 | 0.0617 | 0.0576 | 
21 | F38H | 0.0901 | 0.049 | 0.048 |  | 0.0872 | 0.0656 |  | 0.0696 | 0.0853 | 0.061 | 0.0744 | 0.0755 |  |  | 0.0615 | 0.121 | 0.0811 | 
22 | I110L | 0.0952 | 0.0592 |  |  | 0.0928 | 0.0515 | 0.0651 |  | 0.0852 | 0.0502 | 0.0646 | 0.0609 | 0.0793 |  | 0.0696 |  | 0.0798 | 
23 | R81W | 0.0577 | 0.0481 | 0.0687 |  | 0.0578 | 0.0563 | 0.0736 |  |  | 0.0497 | 0.0237 | 0.0628 | 0.0647 | 0.0872 |  |  |  | 0.0551
24 | R81S | 0.0554 | 0.0456 |  |  |  | 0.0692 | 0.0543 | 0.0451 |  | 0.0569 | 0.0568 | 0.0665 |  |  | 0.0616 | 0.054 |  | 
25 | F65D | 0.0684 | 0.0479 | 0.0565 | 0.0677 | 0.0482 |  | 0.0533 | 0.0506 |  | 0.0574 |  | 0.0745 | 0.0575 |  | 0.0608 |  |  | 
26 | F65H | 0.0894 | 0.06 | 0.0704 | 0.0892 | 0.0915 | 0.0662 |  | 0.0611 |  | 0.0654 | 0.0546 | 0.0504 |  | 0.106 | 0.0837 | 0.114 |  | 0.076
27 | M122R | 0.0958 | 0.0768 |  | 0.0915 |  |  | 0.093 |  | 0.0688 | 0.0688 | 0.067 | 0.089 |  | 0.127 | 0.0725 | 0.114 |  | 0.0906
28 | D161M | 0.0618 | 0.0486 | 0.056 | 0.0547 |  |  |  | 0.061 |  | 0.0232 |  | 0.0539 | 0.044 | 0.0716 | 0.0698 |  |  | 0.038
29 | E107R | 0.116 | 0.0582 | 0.0701 |  | 0.0902 | 0.0719 | 0.0422 | 0.0516 |  | 0.0583 | 0.0616 |  | 0.07 |  | 0.0708 | 0.0256 |  | 0.0731
30 | G37H | 0.0755 |  | 0.0403 |  |  | 0.0585 | 0.0512 |  | 0.0688 |  |  | 0.0591 | 0.0504 |  | 0.0513 |  |  | 

— the supplement of paper PMC12217912
